Measured values from patent US12129305B2, “Targeting CLPTM1L for treatment and prevention of cancer” (The Medical College of Wisconsin, Inc., priority 2018, dated 2024).

Columns and labels:
[1] = system: Akt phosphorylation at threonine 308 in Panc1; test: Western blotting of Panc1 lysates for phospho-Akt (T308); assay type: cell-based, human; settings: regardless of the presence of the ectodomain
Protocol: (A) Western blotting of whole-cell, apoptotic bodies, extracellular vesicles, and microvesicles isolated from Panc1 cells treated with vehicle control or 200 nM gemcitabine. (B) Relative killing (live imaging cytotoxicity) of Panc1 cells treated for 48 hours with −40 nM gemcitabine and culture supernatants from donor cells with vector control or overexpressing CLPTM1L. […]
Cells were lysed with 100 μL of 1× NP40 lysis buffer containing proteinase inhibitors, sheared 10 times with a 28-gauge needle, spun at 16,000×g for 30 minutes, normalized by protein concentration as determined by the Bradford method, and the supernatant boiled for 5 minutes. Twenty microliters of normalized lysate were resolved by SDS-PAGE on 10% acrylamide gels at 150 volts for 1 hour, transferred by iBlot dry transfer (Life Technologies), blocked for 2 hours with TBST 10% milk, incubated with primary antibodies at 1:1000 in TBST 5% milk at 4C overnight with rocking, washed 3×5 minutes with TBST, incubated with secondary anti-rabbit-HRP (Santa Cruz Biotechnology) or goat anti-human-HRP (Invitrogen MH1715) at 1:10,000 in TBST 5% milk for 2 hours with rocking, washed 5×10 minutes with TBST, and signal analyzed using a Biorad Chemidoc XRS. […] Quantitation of Western analyses of three independent cultures was done using Image J software (24).

ID8-luc cells = test: viability of ID8-luc cells in vitro; assay type: cell-based, mouse
Protocol: (A) Flow cytometry histograms of fluorescent labeling of live ID8-luc cells with 102-5 anti-CLPTM1L primary and Alexafluor-488-conjugated secondary antibodies. (B) Viability of ID8-luc cells treated with 100 nM 102-5 anti-CLPTM1L and/or 40 μM carboplatin for 5 days. (C) Relative tumor burden as measured by luciferin luminescence live animal imaging of control vs. 10 mg/kg 102-5 anti-CLPTM1L treated ID8-luc isograft groups (left) and individual animals (right). (D) Relative tumor burden as measured by luciferin luminescence live animal imaging of 10 mg/kg carboplatin plus either control or 102-5 anti-CLPTM1L (10 mg/kg) treated groups (left) and individual animals (right). (E) Final relative mean volumes of SL3 and SL3cis xenograft tumors 24 days post-inoculation. Mice were treated with 5 mg/kg 102-5 and/or 2.5 mg/kg cisplatin I. P. weekly. […]
With disseminated peritoneal disease being the most common presentation upon recurrence of ovarian carcinoma, we utilized an orthotopic isograft model of disseminated peritoneal ovarian cancer. Human anti-CLPTM1L binding to luciferase-expressing ID8 ovarian tumor cells (ID8-luc) was detected by flow cytometry (FIG. 31A). […] Tumor load was monitored by luciferin luminescence using whole body imaging. […]

B1: 102-5: Human anti-CRR9/CLPTM1L IgG1; heavy chain V SEQ ID NO:30, light chain V SEQ ID NO:31 (antibody, V domains shown)
VH: EVQLLESGGGLVQPGGSLRLSCAASGFSFSSYEMNWVRQAPGKGPEWISYISSGGGTIYYADSVRGRFTISRDNSNNTLYLQMNSLRPDDTAIYYCARDRGRKWLQLLFDSWGQGTLVTVSS
VL: QAVLTQPPSASGTPGQKVTISCSGSSSNIGSNTVNWYQQLPGTAPKLLIYTNNQRPSGVPDRFSGSKSGASASLAISGLQSKDEADYYCAAWDDSLNGWVFGGGTKLTVLG
modifications: Synthetic- Anti-CRR9/CLPTM1L clone 102-5 heavy chain V; Synthetic- Anti-CRR9/CLPTM1L clone 102-5 light chain V
Akt phosphorylation at threonine 308 [1]: decreased Akt phosphorylation at threonine 308 | viability (ID8-luc cells; 100 nM 102-5, 5 days, ANOVA p<0.0001): decreased viability | carboplatin killing (ID8-luc cells; 100 nM 102-5 and 40 μM carboplatin, 5 days, ANOVA p<0.05): increased carboplatin killing
